Reference: article PMC4336329 (PLoS ONE, 2015)
Hit rate of the full screen: of about 310,000 compounds, about 2,200 (0.71%) showed an effect of 50% or more. The effect is printed as a negative number. Some of the results follow.

Biological target: human ether-à-go-go-related gene (hERG) potassium channel (human, UniProt Q12809)
Assay: primary screen, population patch clamp on CHO cells stably expressing hERG

Chain of human ether-à-go-go-related gene (hERG) potassium channel (Q12809 whole entry, looked up): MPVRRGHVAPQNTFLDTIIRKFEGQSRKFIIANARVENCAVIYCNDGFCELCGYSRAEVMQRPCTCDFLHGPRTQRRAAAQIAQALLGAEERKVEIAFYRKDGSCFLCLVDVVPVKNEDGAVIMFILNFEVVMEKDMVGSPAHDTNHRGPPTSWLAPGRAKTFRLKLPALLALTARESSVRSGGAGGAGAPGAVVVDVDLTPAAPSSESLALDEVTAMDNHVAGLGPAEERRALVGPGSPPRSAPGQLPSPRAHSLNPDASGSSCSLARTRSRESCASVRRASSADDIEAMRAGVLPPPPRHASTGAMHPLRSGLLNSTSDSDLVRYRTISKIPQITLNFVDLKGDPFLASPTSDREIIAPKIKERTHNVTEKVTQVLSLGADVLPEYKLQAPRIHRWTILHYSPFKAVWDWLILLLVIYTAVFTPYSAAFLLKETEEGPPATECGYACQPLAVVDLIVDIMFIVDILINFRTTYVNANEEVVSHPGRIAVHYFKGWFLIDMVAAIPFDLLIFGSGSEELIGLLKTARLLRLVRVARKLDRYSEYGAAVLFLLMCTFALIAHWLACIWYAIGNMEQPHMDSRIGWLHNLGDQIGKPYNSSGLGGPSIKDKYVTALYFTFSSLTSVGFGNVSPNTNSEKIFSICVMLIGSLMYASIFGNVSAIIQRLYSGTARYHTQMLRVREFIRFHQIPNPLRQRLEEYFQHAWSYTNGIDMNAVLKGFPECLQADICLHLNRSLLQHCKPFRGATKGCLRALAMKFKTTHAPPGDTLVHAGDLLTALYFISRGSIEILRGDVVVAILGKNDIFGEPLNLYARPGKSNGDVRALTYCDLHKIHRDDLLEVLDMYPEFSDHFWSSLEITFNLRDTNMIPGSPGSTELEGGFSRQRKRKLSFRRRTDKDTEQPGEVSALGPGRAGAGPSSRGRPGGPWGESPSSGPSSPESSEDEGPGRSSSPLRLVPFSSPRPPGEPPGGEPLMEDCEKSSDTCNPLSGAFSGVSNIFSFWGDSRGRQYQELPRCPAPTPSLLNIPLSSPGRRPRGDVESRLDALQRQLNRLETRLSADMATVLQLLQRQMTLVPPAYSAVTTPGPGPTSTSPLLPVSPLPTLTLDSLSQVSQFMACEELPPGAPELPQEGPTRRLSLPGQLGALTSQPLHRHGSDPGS

| Structure (SMILES) | hERG current change (%, negative = inhibition) at 1uM [%] |
| --- | --- |
| CCOC(=O)C1CCCN(C(=O)c2cc(COc3ccc(C)nc3)on2)C1 (centres unmarked) | 6.13 |
| CC1(C)COCN1C(=O)c1ccc(Cl)c(Cl)c1 | 15.9 |
| CC[C@H](C)C(C(=O)N1CCN(C(=O)OC(C)(C)C)CC1)n1cc(C(CO)NC(=O)OC(C)(C)C)nn1 (some centres unmarked) | 13.3 |
| CCC(C)(C)NC(=O)CN(Cc1ccc2c(c1)OCO2)C(=O)CCC(=O)Nc1cc(C)ccn1 | 0.971 |
| O=S(=O)(Cc1ccccc1)N1CCC(N2CCN(c3ccccc3)CC2)CC1 | 2.34 |
| CC(=O)c1c(C)[nH]c(C(=O)Nc2ccc(Cl)cc2)c1C | 7.8 |
| CCOc1ccc(NC(=O)C2C3C=CC4(CN(C(C(=O)OC)C(C)C)C(=O)C24)O3)cc1 (centres unmarked) | 7.86 |
| c1coc(-c2nc3c4c5c(sc4ncn3n2)CCCC5)c1 | 3.82 |
| O=C(COc1ccc(Cl)cc1)NCCS(=O)(=O)N1CCN(c2ccc(F)cc2)CC1 | 10.4 |
| O=C(O)/C(=C\c1cccs1)c1ccc(F)cc1 | 9.33 |
| OCCc1c[nH]c2cc(F)ccc12 | 10.4 |
| CCc1ccc(C(=O)NNc2ccccc2F)cc1 | -3.36 |
| CCCOC(=O)CN1C(=O)c2ccc(C(=O)OCCC)cc2C1=O | 8.09 |
| COc1ccccc1CNC(=O)Cn1c(=O)oc2cc(Cl)ccc21 | 2.65 |
| CCc1ccc(NC(=O)NCC2CCN(c3ccc(OC)cc3)C2)cc1 (centres unmarked) | 0.281 |
| C(=C\c1ccccc1)/CN1CCN(Cc2nc(Cc3ccccc3)no2)CC1 | -19.6 |
| CCC(C)(C)n1nnnc1C(c1cc2ccc(OC)cc2[nH]c1=O)N1CCN(C2CCCCC2)CC1 (centres unmarked) | -31 |
| Nc1nc(N2CCCCC2)c(C=O)c(N2CCCCC2)n1 | 9.77 |
| COC(=O)C(NC(=O)c1ccc(F)cc1)(Nc1ncc(S(=O)(=O)c2ccc([N+](=O)[O-])cc2)s1)C(F)(F)F (centres unmarked) | 2.74 |
| Cc1ccc(NC(=O)NCc2cccnc2)cc1C | 12.9 |
| CC(=O)Nc1c(I)c(C(=O)N[C@H]2C(O)O[C@H](CO)[C@@H](O)[C@@H]2O)c(I)c(N(C)C(C)=O)c1I (some centres unmarked) | 0.626 |
| CN(c1ccccc1C(=O)N1CCCC1)S(C)(=O)=O | -6.33 |
| CC(=O)Nc1cccc(NC(=O)COc2ccccc2C)c1 | 13.7 |

| Structure (SMILES) | hERG current change (%, negative = inhibition) at 1uM [%] |
| --- | --- |
| CCN(CC)c1ccc(NC(=O)c2ccco2)cc1 | -9.85 |
| C/C(=N\NC(=O)c1cc(C)[nH]n1)C(C)(C)C | 10.1 |
| O=[N+]([O-])c1ccc(NC2CCCC2)cc1 | 5.47 |
| CCCCn1c(SCC(=O)NCc2ccco2)nc2cc(S(N)(=O)=O)ccc21 | 12.4 |
| COc1ccc(C(=O)NCc2nnc(SCC(=O)N3CCc4ccccc43)n2C2CCCCC2)cc1 | 14 |
| COC(=O)c1ccc(Oc2nc(NC(C)C)nc(N(C)C)n2)cc1 | 11.3 |
| CCCOc1ccc(CCCN=C(N)N)cc1Cl.O=S(=O)(O)O | 15.8 |
| Cc1ccc(/C=C/C2=NN(Cc3ccc(Cl)c(Cl)c3)C(=O)CC2)cc1 | 8.6 |
| COc1ccc(OC)c(NC(=O)c2cc3c(=O)n4ccccc4nc3n2C)c1 | 1.61 |
| COc1ccc(N=CC=C2OC(C)(C)C(C)(C)O2)cc1OC.Cl | 7.43 |
| NNC(=O)c1ccc(CSc2n[nH]c(=O)[nH]c2=O)cc1 | 12 |
| O=C(CSc1ncn[nH]1)Nc1cccc(S(=O)(=O)N2CCCCCC2)c1 | -5.6 |
| CC1=C2C3OC(=O)C(C)[C@@H]3CC[C@](C)(O)C2C2C3C4C5(C12)[C@H]1OC(=O)[C@@H](C)C1CC[C@]4(C)O[C@]5(C)[C@@H]3O (some centres unmarked) | 16.3 |
| N/C(=N\OC(=O)COc1ccc(Br)cc1Cl)c1cccnc1 | 12.7 |
| Cc1ccc(NC(=O)CCN2C(=O)c3cccc([N+](=O)[O-])c3C2=O)c(Br)c1 | 13.1 |
| CC(C)Sc1ncc(S(=O)(=O)c2ccccc2)c(=O)[nH]1 | 13.9 |
| COc1ccccc1C(=O)Nc1ccnn1C1CCN(Cc2cnc(N(C)C)s2)CC1 | -24.7 |
| CCCCCC(=O)Nc1ccc(-c2nnc3n2CCCCC3)cc1 | 14.1 |
| S=c1[nH]nc(CNc2ccc(Cl)cc2)n1Cc1ccccc1 | 9.03 |
| CCCCN(C)CCCNC(=O)/C=C1\Sc2ccccc2NC1=O | -0.0844 |
| COC(=O)CSc1cnc2ccccc2n1 | 10.7 |
| O=S(=O)(c1cc(Cl)ccc1Cl)N1CCCCC1 | 13.8 |
| CCc1ccc(CN(C)C(=O)c2cc(S(=O)(=O)N3CCOCC3)ccc2N2CCCC2)cc1 | 3.03 |

| Structure (SMILES) | hERG current change (%, negative = inhibition) at 1uM [%] |
| --- | --- |
| C#CCOCCOCCOCCNc1nc(N2CCN(C(=O)[C@H](Cc3ccc(O)cc3)n3cc(C(N)CC(C)C)nn3)CC2)nc(N2CCN(C(=O)[C@H](CCC(=O)O)n3cc(C(N)[C@H](C)CC)nn3)CC2)n1.Cl (some centres unmarked) | 10.8 |
| O=C(O)CSc1nc2c(c(C(F)(F)F)n1)CCCC2 | 6.72 |
| O=C(c1cccc(C(F)(F)F)c1)N1CCN(CCc2ccccc2)CC1 | 1.81 |
| CC(=O)Nc1cccc(NC(=O)COC(=O)C2CC3CCCC(C2)C3=O)c1 (centres unmarked) | 10.4 |
| Br.O=C(CN1C2=NCCN2c2ccccc21)c1ccc(Br)s1 | -0.685 |
| O=c1[nH]c2ccc(Br)cc2c(-c2ccccc2)c1CN1CCOCC1 | -9.05 |
| N#CCSc1nc2c(cc1C#N)CCCC2 | -4.56 |
| CC(=O)Nc1c(C)ccc2nsnc12 | 6.78 |
| CNc1oc(-c2ccc(C)cc2)nc1P(=O)(c1ccccc1)c1ccccc1 | 5.8 |
| COc1ccc(CC(=O)N2CC(=O)N(CCc3ccccc3)C(=O)C2)cc1 | -21 |
| O=C(OCc1cncs1)c1cccs1 | 14.9 |
| Nc1c(C(=O)CSc2nnc(Cc3ccccc3)o2)c(=O)[nH]c(=O)n1C1CC1 | 9.63 |
| CCCC(NCC(=O)Nc1cc(S(=O)(=O)N2CCOCC2)ccc1OC)c1ccccc1 (centres unmarked) | 3.06 |
| CCN(CC)S(=O)(=O)c1ccc(Cl)c(NC(=O)COc2ccc(OC)cc2[N+](=O)[O-])c1 | 18.8 |
| CC(C)(C)c1sc(N)nc1-c1ccccc1 | 11.9 |
| CCOC(=O)C1(Cc2cccc(F)c2)CCN(C(=O)C2CCOCC2)CC1 | 2.81 |
| Cc1cc(NC(=O)CCC(=O)N(CCC(C)C)C(C(=O)NC2CCCC2)c2cccnc2)no1 (centres unmarked) | 8.72 |
| Cc1oc2c(F)c(F)c(F)c(F)c2c1S(=O)(=O)Nc1cccc(C(F)(F)F)c1 | -15.6 |
| NNC(=O)c1ccc(O)cc1 | 10.4 |
| C=CCn1c(-c2ccccc2[N+](=O)[O-])n[nH]c1=S | 11 |
| Cc1ccc(C)c(C(=O)COc2ccc(C)nc2[N+](=O)[O-])c1 | 4.3 |
| CCC(CC)C(=O)Nc1cc(OC)c(OC)cc1C(=O)O | 7.97 |
| O=C(NCc1ccccc1)N1CCn2c(nc3ccccc32)C1 | 10.6 |

| Structure (SMILES) | hERG current change (%, negative = inhibition) at 1uM [%] |
| --- | --- |
| Cc1ccc(NC(=O)CS(=O)CC(=O)N(C(C)C(=O)NC2CCCCC2)C(C)(C)C)cc1 (centres unmarked) | 7.68 |
| O=C1CC(N2CCN(Cc3ccc4c(c3)OCO4)CC2)C(=O)N1c1ccccc1 (centres unmarked) | -3.04 |
| C=CCOC(=O)C1=C[C@H](c2csc3ccccc23)C[C@H](OCCCCO)O1 | 14 |
| CCOc1ccc2c(c1)OC(c1ccc(OC)cc1)(C(F)(F)F)NC2=O (centres unmarked) | -3.91 |
| CC[N+]1(CC)CC2=Cc3ccccc3CC2C1.[Br-] (centres unmarked) | -3.1 |
| CSc1ccccc1NC(=O)Nc1ccccc1 | 17.1 |
| CN1C(=O)C(=Cc2ccccc2OCCOc2ccc([N+](=O)[O-])cc2)C(=O)N(C)C1=O | -3.75 |
| COc1ccc(-n2c(=S)[nH]c3ccccc32)cc1 | 8.87 |
| CC(C(=O)N1CCN(Cc2ccccc2)CC1)n1ncn2cccc2c1=O (centres unmarked) | 9.05 |
| Cn1cc(Cl)c(C(=O)NC(=S)Nc2sc3c(c2C#N)CCCCC3)n1 | 14.6 |
| O=C(CSc1nnc(CNC(=O)c2ccccc2)o1)c1ccccc1 | 9.49 |
| CN1C(=O)CC(N2CCC(c3nc4ccccc4[nH]3)CC2)C1=O (centres unmarked) | 18.1 |
| COc1ccc(S(=O)(=O)NCC(=O)NC2CC2)cc1OC | 12.7 |
| CCSc1nnc(NC(=O)Cc2ccc(OC)cc2)s1 | 13.3 |
| CCOC(=O)C1CCCN(C(=O)c2ccccc2NC(C)=O)C1 (centres unmarked) | 7.69 |
| O=C(CCNC(=O)c1ccco1)Nc1cccc(C(F)(F)F)c1 | 7.83 |
| c1ccc(OCC2CO2)cc1 (centres unmarked) | 17.3 |
| CNC1(c2nnnn2-c2c(C)cccc2C)CCOC(C)(C)C1 (centres unmarked) | 2.22 |
| CCOc1ccccc1-n1nnnc1SCC(=O)NCc1ccco1 | 12.7 |
| COc1ccc(-n2c(=S)[nH]c3sc(-c4ccccc4)cc3c2=O)c(OC)c1 | 7.03 |
